The values below come from patent publication US9828589B2, “Acyltransferases and uses thereof in fatty acid production” (priority 2009, dated 2017).

The assay concerns yeast mutant lacking the capability to synthesis TAG. Put plainly: DGAT activity assay (formation of triacylglycerole). Particulars: TLC, FIG. 4.

B1: DGAT_13152-mod(Pi): acyltransferase from Phythophtora infestance, 516 amino acids, SEQ-ID 36, encoded by SEQ-ID 35 (protein)
chain: MDVENSLLTRLAANGPTMSDAPMLLMAVVLVLALSGVVSTVSQQRQKPSEDETLQGRKLTRKLSSMGLSTLVTETPTNLSIPVSVLTVEGHLAKEDYVERLRARILHDAFFLRWRSVVRGDYKTGVYKYVEVPGYDVAQNVVEHTVEEGETTMSYVESALVNTPLDFDKPLWEMHVIHDPKGNPGNTSVGWKVHHCLGDGASLATAMAKLSDQSELFDAMVEKRLQAKKSPKTPKPRKPVTQIIKDILVFLYVCIWSVYVISYHMFALVTRREPATVFKRPGGKQKRLSYNMIYSVNATKAVGKHFRATVNDVMLNVVAGAMRKTMLSVGESVAPTLKVRCAIPVDMRSSTEVIRHTSNRFSSLVIDLPIGVEDSAQRLLQVTAAMNDAKNSLEKFFVYWSTHLVSMLPAPLMRLIVHFTTSRISVATSNVRASVVEVSLCKSPVSGFYGFVPPPPYVNLGVAILSMGDDLGLNVLVDPCVGVNAKQFLEFAKEEFTALQESVAAMEANAGDKKTK
modifications: Phythophtora infestance
Take B1: the “DGAT activity (formation of triacylglycerole, TAG)” value is listed as “having DGAT activity”. Moreover, the “DGAT activity (formation of triacylglycerole, TAG)” value (listed as DGAT2_13152 (Pi)) is listed as “have DGAt activity”.
